From PubChem BioAssay AID2313 (Broad Institute, 2010)
The campaign covered roughly 22,000 compounds. About 460 (2.1%) were called active. The inconclusive results got no clear call from the source; some entries with a clear call stand among them for comparison.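 Rule for the calls: active = mean inhibition across valid replicates above about 65% (limit read from the data); inconclusive = mean under the limit, yet half or more replicates past it; inactive = the rest.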 A structure can be active in one record and inactive in another.

assay: Shh-driven Gli reporter inhibition – luminescence, Shh-LIGHT2 cells, Gli-luciferase, primary screen (AID 2313); settings: 30 h, active compounds read high;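 note: pathway switched on by Shh-conditioned medium diluted 1 in 25 in low serum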

Q: With `C[C@@H]1CN([C@H](C)CO)C(=O)c2cc(NC(=O)Nc3ccc(F)cc3)ccc2O[C@@H]1CN(C)Cc1ccc(Oc2ccccc2)cc1` as the compound, how does the inhibition read?
A: inconclusive: 62.5%

Q: With `COc1ccc(S(=O)(=O)N(C)C[C@@H]2OCCCC[C@@H](C)Oc3ccc(NS(=O)(=O)c4c(C)noc4C)cc3C(=O)N([C@H](C)CO)C[C@@H]2C)cc1` as the compound, how does the inhibition read?
A: inconclusive: 32.4%

Q: For `COc1ccc(NC(=O)N(C)C[C@@H]2Oc3c(NC(=O)c4cnccn4)cccc3C(=O)N([C@@H](C)CO)C[C@H]2C)cc1`, which inhibition is on record?
A: inconclusive: 23.5%

Q: For `COC1CC(=O)C23C(=O)NC(CC(C)C)C2C(C)C(C)=CC3/C=C(\C)CCC(O)C1O` (centres undefined), which inhibition is on record?
A: inactive: -12.3%

Q: With `COc1c(Cc2ccccc2O)c(O)c(Cc2ccccc2O)c(O)c1C(=O)CCc1ccccc1` as the compound, how does the inhibition read?
A: active: 89.2%

Q: Which inhibition does the source give for `C[C@H](CO)N1C[C@H](C)[C@@H](CN(C)C(=O)Nc2ccc3c(c2)OCO3)Oc2ccc(NC(=O)Nc3ccc4c(c3)OCO4)cc2C1=O` here?
A: inconclusive: 30.3%

Q: For `CC12CCC(c3c1nn(-c1ccccc1)c3C(F)(F)F)C2(C)C` (centres undefined), which inhibition is on record?
A: inconclusive: 45.4%

Q: With `COc1ccc(S(=O)(=O)N(C)C[C@H]2Oc3ccc(NC(=O)C4CCCCC4)cc3CC(=O)N([C@@H](C)CO)C[C@H]2C)cc1` as the compound, how does the inhibition read?
A: inconclusive: 18.3%

Q: Which inhibition does the source give for `Oc1ccc(/C=C/c2cc(O)cc(O)c2)cc1` here?
A: inconclusive: 61.4%

Q: Which inhibition does the source give for `O=C(Nc1cccc2ccccc12)C12CC3CC(CC(C3)C1)C2` here?
A: inactive: -42.5%

Q: Which inhibition does the source give for `Cc1cc(C)c(C#N)c(SCc2cc(=O)[nH][nH]2)n1` here?
A: inactive: -12.7%

Q: For `Cc1ccc(S(=O)(=O)N(C)C[C@H]2Oc3ccc(NC(=O)Nc4ccc(F)cc4)cc3CC(=O)N([C@H](C)CO)C[C@H]2C)cc1`, which inhibition is on record?
A: inactive: 34.2%

Q: For `C[C@H](CO)N1C[C@H](C)[C@H](CN(C)Cc2ccc(-c3ccccc3)cc2)Oc2c(NC(=O)C3CCOCC3)cccc2C1=O`, which inhibition is on record?
A: inconclusive: 44.3%

Q: Which inhibition does the source give for `C[C@H](CO)N1C[C@H](C)[C@H](CN(C)C(=O)Nc2cccc3ccccc23)Oc2ccc(NC(=O)Cc3ccccc3)cc2CC1=O` here?
A: inconclusive: 29.9%

Q: With `CCCCC/C=C/C(=O)CCc1ccc(O)c(OC)c1` as the compound, how does the inhibition read?
A: inactive: -27.7%

Q: For `O=C(Cc1ccccc1)c1ccccc1C(=O)NCc1ccc(F)cc1`, which inhibition is on record?
A: inconclusive: 57.3%

Q: Which inhibition does the source give for `C[C@@H]1CN([C@@H](C)CO)C(=O)c2cc(NC(=O)Nc3ccc4c(c3)OCO4)ccc2O[C@@H]1CN(C)Cc1ccc(Oc2ccccc2)cc1` here?
A: inconclusive: 45.7%

Q: With `Nc1nc2ccc(OC(F)(F)F)cc2s1` as the compound, how does the inhibition read?
A: active: 68.3%

Q: Which inhibition does the source give for `C[C@H](CO)N1C[C@H](C)[C@H](CN(C)Cc2ccc(-c3ccccc3)cc2)Oc2ccc(NC(=O)CCN3CCOCC3)cc2CC1=O` here?
A: inconclusive: 40%

Q: For `C[C@@H]1CN([C@@H](C)CO)C(=O)c2cccc(NC(=O)Nc3ccccc3)c2O[C@@H]1CN(C)C(=O)Nc1cccc2ccccc12`, which inhibition is on record?
A: inconclusive: 51.9%

Q: With `COc1ccc2c(c1OC)C(=O)O[C@@H]2[C@H]1c2c(cc3c(c2OC)OCO3)CCN1C` as the compound, how does the inhibition read?
A: inactive: 42.9%

Q: Which inhibition does the source give for `C[C@@H]1CCCCO[C@H](CN(C)S(=O)(=O)c2cn(C)cn2)[C@@H](C)CN([C@H](C)CO)C(=O)c2cc(NC(=O)Cc3ccccc3)ccc2O1` here?
A: inconclusive: 55.8%

Q: With `C[C@]12CCC3c4ccc(O)cc4CCC3C1CC[C@@H]2OC(=O)CCC1CCCC1` (some centres undefined) as the compound, how does the inhibition read?
A: inconclusive: 56.7%

Q: For `N=C1S/C(=C/c2ccco2)C(=O)N1c1nccs1`, which inhibition is on record?
A: inactive: 53.4%

Q: Which inhibition does the source give for `C[C@@H]1CN([C@H](C)CO)C(=O)c2cccc(NC(=O)Nc3ccc(F)cc3)c2O[C@H]1CN(C)C` here?
A: inactive: 7.88%

Q: Which inhibition does the source give for `CSc1ccccc1NC(=O)c1cnn2c(C(F)(F)F)cc(-c3ccco3)nc12` here?
A: inconclusive: 59.5%

Q: With `CSc1ccc(C2N[C@@H](C(=O)O)C(C)(C)S2)cc1` (some centres undefined) as the compound, how does the inhibition read?
A: inactive: 2.54%

Q: For `CC[C@H]1C(=O)CC2C3CCC4C[C@@H](O)[C@]5(O)C[C@]4(CO5)C3CC[C@@]21C` (some centres undefined), which inhibition is on record?
A: inactive: -12.9%

Q: Which inhibition does the source give for `C[C@@H]1CN([C@@H](C)CO)C(=O)c2cc(NC(=O)Cc3ccccc3)ccc2O[C@H]1CN(C)Cc1ccc(C(F)(F)F)cc1` here?
A: inconclusive: 14.5%

Q: Which inhibition does the source give for `Cc1cccc(Cc2c(C)c3c(C)[nH]nc3oc2=O)c1` here?
A: inconclusive: 53.1%

Q: With `C[C@H]1CN([C@@H](C)CO)C(=O)Cc2cc(NC(=O)CCN3CCOCC3)ccc2O[C@H]1CN(C)Cc1ccc(-c2ccccc2)cc1` as the compound, how does the inhibition read?
A: inconclusive: 21.6%

Q: For `C[C@@H]1CN([C@@H](C)CO)C(=O)c2cccc(NS(=O)(=O)c3ccc(Cl)cc3)c2O[C@@H]1CN(C)Cc1ccc(C(=O)O)cc1`, which inhibition is on record?
A: inactive: -66.8%

Q: With `O=C1CC(SCc2ccc(Cl)cc2)C(=O)N1c1ccc(Br)cc1` (centres undefined) as the compound, how does the inhibition read?
A: active: 93.6%

Q: Which inhibition does the source give for `COc1ccc2cc(C3CC(c4ccc(OC)c(OC)c4)=NN3C(=O)c3ccco3)c(Cl)nc2c1` (centres undefined) here?
A: inactive: -6.88%

Q: Which inhibition does the source give for `C[C@@H]1CN([C@H](C)CO)C(=O)c2cccc(NC(=O)c3nc4ccccc4s3)c2O[C@H]1CN(C)S(=O)(=O)c1ccccc1` here?
A: inconclusive: -15.2%

Q: Which inhibition does the source give for `CCCCCC[C@@H]([C@@H](C)O)n1cnc2c(N)ncnc21` here?
A: inconclusive: 58.3%

Q: Which inhibition does the source give for `COc1cccc(-c2cc(NCc3ccc4c(c3)OCO4)nc(N)n2)c1` here?
A: inconclusive: 63.1%

Q: For `C[C@H]1CN([C@@H](C)CO)C(=O)Cc2cc(NS(=O)(=O)c3ccc(F)cc3)ccc2O[C@H]1CN(C)Cc1ccc(C(F)(F)F)cc1`, which inhibition is on record?
A: inactive: 30.1%

Q: Which inhibition does the source give for `C[C@H]1CN([C@@H](C)CO)C(=O)Cc2cc(NC(=O)CCN3CCOCC3)ccc2O[C@H]1CN(C)C(=O)NC1CCCCC1` here?
A: inconclusive: 27%

Q: With `Cc1ccc(S(=O)(=O)Nc2ccc3c(c2)C(=O)N([C@@H](C)CO)C[C@@H](C)[C@@H](CN(C)CC2CCCCC2)O3)cc1` as the compound, how does the inhibition read?
A: inactive: 11.1%

Q: For `C[C@H]1CN([C@@H](C)CO)C(=O)c2cc(NS(=O)(=O)c3ccc(Cl)cc3)ccc2O[C@H]1CN(C)Cc1ccc2c(c1)OCO2`, which inhibition is on record?
A: inconclusive: 30.8%

Q: For `CSc1sc(C#N)c2c1C(=O)CC(c1ccccc1)C2` (centres undefined), which inhibition is on record?
A: active: 86.5%

Q: For `OCC1=CC[C@@H]2C=CO[C@@H](O[C@@H]3O[C@H](CO)[C@@H](O)[C@H](O)[C@H]3O)[C@H]12`, which inhibition is on record?
A: inactive: -20.1%

Q: With `COc1ccc2c(c1)OC/C(=C\c1ccc(OC)c(O)c1)C2=O` as the compound, how does the inhibition read?
A: inconclusive: 57.2%

Q: With `C[C@@H]1CCCCO[C@H](CN(C)Cc2ccccc2)[C@@H](C)CN([C@H](C)CO)C(=O)c2cc(NC(=O)CCCN(C)C)ccc2O1` as the compound, how does the inhibition read?
A: inconclusive: 54%

Q: With `C[C@H](CO)N1C[C@H](C)[C@H](CN(C)S(=O)(=O)c2ccc(Cl)cc2)Oc2ccc(NC(=O)Nc3ccc4c(c3)OCO4)cc2C1=O` as the compound, how does the inhibition read?
A: inactive: 20.7%

Q: With `COc1ccc(CN(C)C[C@H]2Oc3ccc(NS(=O)(=O)c4c(C)noc4C)cc3CC(=O)N([C@@H](C)CO)C[C@@H]2C)cc1` as the compound, how does the inhibition read?
A: inconclusive: 37.6%

Q: With `C[C@H](CO)N1C[C@H](C)[C@H](CN(C)S(=O)(=O)c2ccc(Cl)cc2)Oc2c(NC(=O)C3CCCCC3)cccc2C1=O` as the compound, how does the inhibition read?
A: active: 103%

Q: Which inhibition does the source give for `CC(C)N1CC=C2C(C1)C(c1ccccc1)C(C#N)=C(N)C2(C#N)C#N` (centres undefined) here?
A: inactive: 49.7%

Q: With `C[C@H](CO)N1C[C@H](C)[C@H](CN(C)C(=O)Nc2ccc(F)cc2)Oc2ccc(NC(=O)Nc3cccc4ccccc34)cc2CC1=O` as the compound, how does the inhibition read?
A: inconclusive: 14.3%

Q: For `CC(C)NC(=O)N(C)C[C@H]1Oc2c(NS(=O)(=O)c3ccc(F)cc3)cccc2C(=O)N([C@H](C)CO)C[C@H]1C`, which inhibition is on record?
A: inactive: -8.53%

Q: For `Cc1ccc(S(=O)(=O)Nc2cccc3c2O[C@@H](CN(C)CC2CCCCC2)[C@@H](C)CN([C@H](C)CO)C3=O)cc1`, which inhibition is on record?
A: active: 87.7%

Q: Which inhibition does the source give for `Cc1ccc(S(=O)(=O)Nc2ccc3c(c2)C(=O)N([C@H](C)CO)C[C@@H](C)[C@@H](CN(C)Cc2ccc(Oc4ccccc4)cc2)O3)cc1` here?
A: inconclusive: 63%

Q: Which inhibition does the source give for `CC(C)NC(=O)Nc1cccc2c1O[C@@H](CN(C)S(=O)(=O)c1ccc(Cl)cc1)[C@@H](C)CN([C@H](C)CO)C2=O` here?
A: active: 102%

Q: For `C[C@H](CO)N1C[C@H](C)[C@H](CN(C)C(=O)Nc2ccc3c(c2)OCO3)Oc2ccc(NC(=O)CCN3CCOCC3)cc2CC1=O`, which inhibition is on record?
A: inconclusive: 19.3%

Q: Which inhibition does the source give for `C[C@@H]1CN([C@@H](C)CO)C(=O)Cc2cc(NC(=O)c3ccncc3)ccc2O[C@@H]1CN(C)Cc1ccc(-c2ccccc2)cc1` here?
A: inconclusive: 47.2%

Q: For `Cc1ccc(S(=O)(=O)Nc2cccc3c2O[C@@H](CN(C)C(=O)NC2CCCCC2)[C@@H](C)CN([C@H](C)CO)C3=O)cc1`, which inhibition is on record?
A: inconclusive: 11.6%

Q: For `C[C@H](CO)N1C[C@H](C)[C@@H](CN(C)C(=O)Nc2ccccc2)Oc2ccc(NS(=O)(=O)c3cccs3)cc2C1=O`, which inhibition is on record?
A: inconclusive: 26.4%

Q: With `O=C(Nc1ccccc1)Nc1ccc2nnsc2c1` as the compound, how does the inhibition read?
A: inactive: -63%

Q: For `C[C@H]1CN([C@@H](C)CO)C(=O)c2cccc(N(C)C)c2O[C@H]1CN(C)C(=O)NC1CCCCC1`, which inhibition is on record?
A: inactive: -3.79%

Q: Which inhibition does the source give for `COc1ccc(NC(=O)Nc2ccc3c(c2)CC(=O)N([C@@H](C)CO)C[C@H](C)[C@H](CN(C)S(=O)(=O)c2ccc(F)cc2)O3)cc1` here?
A: inactive: -13.7%

Q: For `Cc1noc(C)c1S(=O)(=O)Nc1cccc2c1O[C@@H](CN(C)S(=O)(=O)c1ccc(Cl)cc1)[C@@H](C)CN([C@@H](C)CO)C2=O`, which inhibition is on record?
A: active: 106%

Q: For `C[C@@H]1CN([C@@H](C)CO)C(=O)Cc2cc(NC(=O)Nc3ccccc3)ccc2O[C@@H]1CN(C)CC1CCCCC1`, which inhibition is on record?
A: inactive: -8.55%

Q: Which inhibition does the source give for `C/C=C/C(O)C(C)CC(C)C(OC(=O)CCC(=O)O)C(C)/C=C/C=C/C=C(\C)C(=O)O` (centres undefined) here?
A: inactive: 8.15%
